Laboratory results reported in PubChem BioAssay AID1460 (National Center for Advancing Translational Sciences (NCATS), 2008).
Hit rate of the full screen: of about 270,000 compounds, about 5,800 (2.1%) were called active. Inconclusive means that the source gave no clear call. Such entries were picked first, then a sample of the others. Calls follow the shape of the dose curve; as a rule, active = well fitted inhibition curve with a large enough effect; inconclusive = small, poorly fitted or top-dose-only effect; inactive = flat fitted curve, though single readings scatter. Potencies of inconclusive entries are doubtful fits and often do not repeat.

These molecules were tested against Microtubule-associated protein tau (Homo sapiens) (UniProt P10636) (assay: qHTS for Inhibitors of Tau Fibril Formation, Thioflavin T Binding). Settings: recombinant tau K18 P301L (four-repeat tau fragment), heparin-induced fibrillization, ThT fluorescence; series mostly up to 57.4 µM; activity, negative = inhibition: at the top concentration.
Summary of the method: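 Aggregation was driven by heparin (20 uM final) acting on recombinant tau […] bearing P301L in 100 mM sodium acetate pH 7; fibrils were detected with Thioflavin T.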
% is scaled to controls: 0 for no effect and ±100 for the full control effect; potency is read from the fitted curve at half-maximal effect; tags tell the direction and shape of the fitted curve.
Also: nearly all actives have a fitted effect of over 55% in size.

Chain of UniProt P10636 (P10636 whole entry, looked up, the tested form may be a part): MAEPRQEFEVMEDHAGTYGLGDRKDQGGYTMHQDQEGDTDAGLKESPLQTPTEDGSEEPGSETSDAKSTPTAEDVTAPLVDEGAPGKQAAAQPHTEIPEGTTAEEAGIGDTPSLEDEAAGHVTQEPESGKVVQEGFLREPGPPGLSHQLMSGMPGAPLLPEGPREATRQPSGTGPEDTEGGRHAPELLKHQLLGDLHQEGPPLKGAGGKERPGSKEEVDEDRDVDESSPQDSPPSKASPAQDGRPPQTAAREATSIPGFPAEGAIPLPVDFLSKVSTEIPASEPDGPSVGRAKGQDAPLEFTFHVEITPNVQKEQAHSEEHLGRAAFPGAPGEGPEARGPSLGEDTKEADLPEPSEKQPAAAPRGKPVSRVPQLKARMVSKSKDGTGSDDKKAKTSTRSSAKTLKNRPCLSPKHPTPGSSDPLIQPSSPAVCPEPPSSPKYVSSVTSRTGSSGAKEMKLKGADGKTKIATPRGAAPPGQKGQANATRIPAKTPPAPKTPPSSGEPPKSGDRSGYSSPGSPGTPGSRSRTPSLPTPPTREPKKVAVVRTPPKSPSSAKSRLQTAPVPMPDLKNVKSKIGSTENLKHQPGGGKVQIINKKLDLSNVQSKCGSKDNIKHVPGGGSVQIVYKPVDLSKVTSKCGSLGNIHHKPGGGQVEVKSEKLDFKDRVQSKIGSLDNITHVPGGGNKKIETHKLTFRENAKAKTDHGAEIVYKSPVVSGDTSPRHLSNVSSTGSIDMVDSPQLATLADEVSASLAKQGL

| Compound | Potency | activity, negative = inhibition |
| --- | --- | --- |
| CCOC(=O)c1ccc(NC(=O)CSc2nc3cc4ccccc4cc3[nH]2)cc1 | inconclusive: 4.47 µM [inhibitor, partial curve] | – |
| Clc1ccccc1-c1nnc(COc2ccccc2)o1 | – | inactive: -15.1% |
| Cc1nonc1OCCN1CCN(c2ccccc2[N+](=O)[O-])CC1 | – | inactive: -10.6% |
| NC(Cc1c[nH]c2ccccc12)C(=O)NCC(=O)O (configuration not stated) | – | inactive: -6.05% |
| O=C(CSC1=NCCS1)c1ccc(Cl)cc1 | inconclusive: 17.8 µM [inhibitor, partial curve] | – |
| CCc1c(C)sc2nc3c(C(=O)N4CCOCC4)cc(C(=O)c4cc(F)ccc4O)cn3c(=O)c12 | inconclusive: 12.6 µM [inhibitor, partial curve] | – |
| CCCCC(=O)Nc1ccc(NC(=O)c2ccc(C)c([N+](=O)[O-])c2)cc1OC | inconclusive: 11.2 µM [inhibitor, partial curve, poor fit] | – |
| COc1cc(O)c(C(CCN2CCCC(C)C2)c2ccc3c(c2)OCO3)c(OC)c1 (configuration not stated) | inconclusive: 39.8 µM [inhibitor, single point] | – |
| Fc1ccc(Sc2ccccc2CNC2=NCCN2)cc1 | – | inactive: 0.771% |
| O=C(NNC(=O)C1CCN(S(=O)(=O)c2ccc(Cl)cc2)CC1)c1ccc(S(=O)(=O)N2CCCCC2)cc1 | – | inactive: -0.0957% |
| COc1ccc(/C(C)=N/Nc2ccc(C(=O)O)cc2)cc1OC | inconclusive: 12.6 µM [inhibitor, partial curve] | – |
| Cn1c(SCc2ccccc2Cl)nc2ccccc21 | inconclusive: 22.4 µM [inhibitor, partial curve, poor fit] | – |
| NNc1nc2c(F)cc(F)cc2s1 | active: 12.6 µM | – |
| CCOC(=O)c1cc(C)n(CC2CCC(C(=O)Nc3ccccc3OC)CC2)c1C (configuration not stated) | – | inactive: -2.64% |
| CSc1ncc(C(=O)Nc2ccc(C)c(Cl)c2)c(-c2ccccc2)n1 | – | inactive: -1.09% |
| COc1ccccc1CNc1nc(-c2cc(C)n(C)c2C)cs1 | inconclusive: 28.2 µM [inhibitor, partial curve] | – |
| CC1CN(c2nc(Nc3ccccc3)nc(N)c2[N+](=O)[O-])CC(C)O1 (configuration not stated) | inconclusive: 11.2 µM [inhibitor, partial curve] | – |
| COc1ccccc1N1Cc2ccccc2C1 | inconclusive: 35.5 µM [inhibitor, single point] | – |
| C/C(CC(=O)NCc1ccccc1)=N\NC(N)=S | – | inactive: -8.72% |
| CCOC(=O)c1sc2ccccc2c1S(=O)(=O)Nc1ccc(C(C)=O)cc1 | inconclusive: 14.1 µM [inhibitor, partial curve] | – |
| O=C(OCC1CC(c2ccccc2Cl)=NO1)c1ccc(Br)cc1 (configuration not stated) | inconclusive: 11.2 µM [inhibitor, partial curve, poor fit] | – |
| CCOC(=O)c1ccc(-c2ccc(C(=O)Nc3cccnc3)o2)cc1 | inconclusive: 1.12 µM [inhibitor, full curve] | – |
| Cn1c(=O)n(C)c2cc([N+](=O)[O-])c(N3CCN(C(=O)c4cccc(Cl)c4)CC3)cc21 | inconclusive: 39.8 µM [inhibitor, single point] | – |
| COc1ccc(-c2cn3cccc(C)c3n2)cc1F | – | inactive: -0.37% |

| Compound | Potency | activity, negative = inhibition |
| --- | --- | --- |
| COCCCN1C(=O)CS/C1=N\S(=O)(=O)c1ccccc1 | – | inactive: -6.54% |
| C/C=C\C1=C(CO)C(=O)C2O[C@]2(CC=C(C)C)C1=O (some centres not stated) | inconclusive: 3.55 µM [inhibitor, partial curve] | – |
| Cc1cc2nc(-c3cccnc3SCC(=O)NCc3ccco3)[nH]c2cc1C | inconclusive: 28.2 µM [inhibitor, single point] | – |
| O=C(COC(=O)c1ccccc1NC(=O)c1ccco1)Nc1ccc2c(c1)OCO2 | inconclusive: 25.1 µM [inhibitor, single point] | – |
| O=[N+]([O-])c1nn(-c2ccc3c(c2)OCCO3)n(O)c1=Nc1ccccc1 | – | inactive: 4.06% |
| NC(=O)c1ccc(NC(=O)COC(=O)c2c3c(nc4ccccc24)/C(=C\c2ccc4c(c2)OCO4)CCC3)cc1 | inconclusive: 1.78 µM [inhibitor, full curve] | – |
| CC(=O)N1CCN(CCN=CC2=C(O)CC(c3cccs3)CC2=O)CC1 (configuration not stated) | – | inactive: -6.38% |
| COc1cc(CN2CCN(S(=O)(=O)c3ccc(NC(C)=O)cc3)CC2)cc(OC)c1OC | – | inactive: -1.32% |
| Cc1ccc(C)c(N(CC(=O)Nc2ccc(-c3nc4ccc(C)cc4s3)cc2)S(C)(=O)=O)c1 | inconclusive: 10 µM [activator, partial curve] | – |
| COCCn1nnnc1C(c1cc2cc(C)cc(C)c2[nH]c1=O)N1CCN(c2ccccc2F)CC1 (configuration not stated) | inconclusive: 25.1 µM [inhibitor, partial curve] | – |
| Cc1ccc(CN(Cc2ccco2)C(=S)NCC(=O)NCc2cccnc2)cc1 | – | inactive: -17.6% |
| O=C(O)CNC(=S)N(Cc1ccccc1F)C1CCCCC1 | – | inactive: -6.3% |
| Cc1cc(SCCC(=O)O)nc2c(C)cccc12 | – | inactive: -1.38% |
| Brc1ccc2[nH]c3c(c2c1)CCC3 | inconclusive: 39.8 µM [inhibitor, partial curve, poor fit] | – |
| CN1CCc2c(sc(N)c2C(=O)O)C1 | inconclusive: 28.2 µM [inhibitor, single point] | – |
| COc1ccccc1NC(=O)C(=O)N/N=C/c1ccc([N+](=O)[O-])s1 | inconclusive: 3.16 µM [inhibitor, partial curve] | – |
| Cc1onc(-c2c(Cl)cccc2Cl)c1C(=O)NNc1ccccc1 | inconclusive: 17.8 µM [inhibitor, partial curve, poor fit] | – |
| O=C1C=C(Nc2ccccc2)c2ccccc2C1=O | inconclusive: 12.6 µM [inhibitor, partial curve] | – |
| COc1ccc(Nc2nc(N)nc(CN3CCN(c4ccc(F)cc4)CC3)n2)cc1 | inconclusive: 17.8 µM [inhibitor, partial curve, poor fit] | – |
| Cc1ccc(C(=O)NCCSc2ccc(Cl)cc2)cc1[N+](=O)[O-] | inconclusive: 28.2 µM [inhibitor, partial curve] | – |
| CCOc1cc(C=C(C(=O)OC)C(=O)OC)ccc1OCc1ccc([N+](=O)[O-])cc1 | active: 12.6 µM | – |
| CCC(CC)C(=O)N(CCc1ccc(OC)cc1)Cc1nc2ccccc2c(=O)[nH]1 | – | inactive: -10.4% |
| O=C(NC1CCCCC1)c1ccc(S(=O)(=O)c2ccccc2Cl)c([N+](=O)[O-])c1 | inconclusive: 17.8 µM [inhibitor, single point] | – |
| CC(C)(C)c1ccc(OCc2nc3ccccc3n2CCOc2ccccc2)cc1 | inconclusive: 35.5 µM [inhibitor, single point] | – |

| Compound | Potency | activity, negative = inhibition |
| --- | --- | --- |
| CCc1cccc(OCC(=O)Nc2ccc(S(=O)(=O)Nc3ncccn3)cc2)c1 | – | inactive: 0.0598% |
| Clc1ccc(-c2nnc3sc(-c4ccccn4)nn23)cc1 | – | inactive: -1.33% |
| CC1CCc2c(cc(-c3ccccc3)n2-c2ccc(C(=O)NC(C)C)cc2)C1 (configuration not stated) | inconclusive: 22.4 µM [activator, partial curve] | – |
| COc1ccc(-c2ccc(-c3nnc(Cc4ccc(OC)c(OC)c4)o3)cc2)cc1 | inconclusive: 1.12 µM [inhibitor, full curve] | – |
| Cn1cccc1C1C(C#N)=C(N)OC2=C1C(=O)CCC2 (configuration not stated) | inconclusive: 31.6 µM [inhibitor, single point] | – |
| O=C(NCCc1ccccc1)c1nc2c(nnn2Cc2ccccc2Cl)c(=O)[nH]1 | – | inactive: -6.03% |
| CC(=O)Nc1cccc(NC(=S)Nc2ccc(F)cc2F)c1 | inconclusive: 39.8 µM [inhibitor, single point] | – |
| CCN1CCN(Cc2c(O)ccc3c2O/C(=C\C=C\c2ccccc2OC)C3=O)CC1 | inconclusive: 17.8 µM [inhibitor, partial curve] | – |
| CCCNS(=O)(=O)c1cc(-c2nn3c(C)nnc3c3ccccc23)ccc1C | – | inactive: -7.55% |
| COc1ccc(C2CC(c3ccc(Cl)cc3Cl)Nc3nc(N)nn32)cc1 (configuration not stated) | – | inactive: -14.9% |
| N#Cc1ccc(-c2csc(NNC(=O)c3ccccc3)n2)cc1 | inconclusive: 8.91 µM [inhibitor, partial curve] | – |
| CCc1ccc2oc(=O)cc(CN3CCN(c4ccc(F)cc4)CC3)c2c1 | inconclusive: 12.6 µM [inhibitor, partial curve, poor fit] | – |
| CCCCn1c(=NC(=O)c2ccc3c(c2)OCO3)c(C#N)cc2c(=O)n3cccc(C)c3nc21 | inconclusive: 14.1 µM [inhibitor, partial curve, poor fit] | – |
| Clc1cccc(CSc2ccc(-c3cccnc3)nn2)c1 | inconclusive: 25.1 µM [inhibitor, single point] | – |
| Cc1cc(C)c(NC(=O)c2nc3ccccc3nc2N2CCCCC2)c(C)c1 | – | inactive: -8.28% |
| Cc1ccccc1N/C(=C(/C(Cl)=C(Cl)Cl)[N+](=O)[O-])n1nnc2ccccc21 | inconclusive: 14.1 µM [inhibitor, partial curve] | – |
| c1ccc2c(c1)NC1(CCCCC1)n1c-2nc2ccccc21 | inconclusive: 15.8 µM [inhibitor, partial curve] | – |
| CN(CC(O)CN)CC(O)CN1CCCCC1 (configuration not stated) | – | inactive: -3.27% |
| Cc1ccc2cn[nH]c2c1N | inconclusive: 25.1 µM [inhibitor, single point] | – |
| CNC(=O)COC(=O)c1cc(-c2ccco2)nc2ccccc12 | inconclusive: 20 µM [inhibitor, partial curve] | – |
| CCN(CC)c1ccc(/C=N/NC(=O)c2cc(C)nc3ccccc23)cc1 | inconclusive: 3.16 µM [inhibitor, partial curve, poor fit] | – |
| Nc1ccc(-c2ccc3ccccc3n2)cc1 | inconclusive: 15.8 µM [inhibitor, partial curve] | – |
| O=C(Cn1c(=O)n(CCc2ccccc2)c(=O)c2cccnc21)Nc1ccc(F)cc1 | – | inactive: 11.2% |
| CS(=O)(=O)c1ccc(S(=O)CC(=O)Oc2ccc(Cl)cc2)c([N+](=O)[O-])c1 (configuration not stated) | active: 3.55 µM | – |
